Structures are written as SMILES. Among all 310,000 compounds or so, about 2,200 (0.71%) showed an effect of 50% or more. The effect is printed as a negative number. Some of the results follow.

For the test, the target named is human ether-à-go-go-related gene (hERG) potassium channel (human, UniProt Q12809). Description: primary screen, population patch clamp on CHO cells stably expressing hERG.
human ether-à-go-go-related gene (hERG) potassium channel, sequence (Q12809 whole entry, looked up): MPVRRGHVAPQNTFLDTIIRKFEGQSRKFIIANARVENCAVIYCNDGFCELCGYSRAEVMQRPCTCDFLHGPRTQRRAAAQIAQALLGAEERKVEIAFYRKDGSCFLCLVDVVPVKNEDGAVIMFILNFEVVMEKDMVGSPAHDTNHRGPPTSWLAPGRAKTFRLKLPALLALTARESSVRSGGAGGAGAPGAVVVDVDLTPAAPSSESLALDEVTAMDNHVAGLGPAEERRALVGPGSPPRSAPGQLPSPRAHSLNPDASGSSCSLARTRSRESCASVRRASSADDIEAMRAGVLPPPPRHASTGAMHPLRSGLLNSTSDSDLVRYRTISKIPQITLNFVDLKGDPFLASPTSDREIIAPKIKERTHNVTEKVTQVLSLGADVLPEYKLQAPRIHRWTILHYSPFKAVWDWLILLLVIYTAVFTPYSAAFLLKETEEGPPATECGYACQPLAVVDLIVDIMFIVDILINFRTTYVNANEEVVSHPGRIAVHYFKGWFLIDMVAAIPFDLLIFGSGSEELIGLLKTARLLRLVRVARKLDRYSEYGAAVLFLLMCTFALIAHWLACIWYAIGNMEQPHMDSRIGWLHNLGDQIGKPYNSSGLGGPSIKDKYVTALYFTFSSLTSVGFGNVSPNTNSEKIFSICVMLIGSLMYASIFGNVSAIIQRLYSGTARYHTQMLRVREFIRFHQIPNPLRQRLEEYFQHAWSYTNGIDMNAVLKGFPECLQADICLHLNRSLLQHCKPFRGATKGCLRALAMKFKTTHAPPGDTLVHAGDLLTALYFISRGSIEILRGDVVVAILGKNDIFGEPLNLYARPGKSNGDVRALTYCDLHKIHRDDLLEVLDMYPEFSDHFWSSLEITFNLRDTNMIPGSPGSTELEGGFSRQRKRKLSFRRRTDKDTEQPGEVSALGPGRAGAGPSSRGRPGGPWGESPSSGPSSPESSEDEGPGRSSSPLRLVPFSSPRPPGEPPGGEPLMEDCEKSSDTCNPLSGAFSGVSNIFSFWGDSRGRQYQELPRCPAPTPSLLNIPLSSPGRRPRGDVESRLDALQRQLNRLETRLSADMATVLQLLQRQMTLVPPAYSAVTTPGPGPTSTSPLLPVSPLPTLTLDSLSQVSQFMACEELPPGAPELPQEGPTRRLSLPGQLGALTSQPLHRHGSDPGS
`O=C(CSc1nnc(-c2cccs2)o1)OCc1ccccc1`: the “hERG current change (%, negative = inhibition) at 1uM” value was determined as 7.64%.

As for `CC(=O)N1CCN(c2ccc(NC(=O)c3cccc(C)c3)cc2)CC1`, the “hERG current change (%, negative = inhibition) at 1uM” value is reported as 21.7%. Next, `Cc1cc(C)cc(OCCNC(=O)c2cc(S(=O)(=O)N3CCOCC3)ccc2F)c1`: -8.97%; `CC1(C)Cc2ccccc2-c2nc3n(c(=O)c21)CCCS3`: 8.51%; `Brc1ccccc1-c1nnc(COc2ncnc3ccccc23)o1`: 10%.

As for `CCCN1C(=O)c2ccc(C(=O)NC3=NCCS3)cc2C1=O`, the “hERG current change (%, negative = inhibition) at 1uM” value is given as 4.29%. With `Cc1cccc(N(CC(=O)NC2CCCCC2)C(=O)c2csnn2)c1` the figure was 9.5%; with `CCOC(=O)C1C(=O)NC(N2CCOCC2)=NC1C(C)C` (stereo not drawn), 9.84%.

Regarding `CS(=O)(=O)c1ccc(NCCc2ccc(S(N)(=O)=O)cc2)c([N+](=O)[O-])c1`, the “hERG current change (%, negative = inhibition) at 1uM” value amounted to 4.03%. Next, `CC(=O)c1c(C)n([O-])c2cc(C)ccc2[n+]1=O`: 3.04%. With `Cn1c(=O)n(C)c(=O)n(CC(=O)N2CCCCC2)c1=O`, the “hERG current change (%, negative = inhibition) at 1uM” value is -2.91%. Next, `CCOc1ccccc1NC(=O)Nc1cc(S(=O)(=O)N(C)C)ccc1C`: 14.8%. With `Cn1c(CN2CCOCC2)nc2cc(NC(=O)COc3ccc([N+](=O)[O-])cc3)ccc21` the figure was 4.05%. Next, `Nc1nc(-c2ccco2)nn1S(=O)(=O)c1ccc(Cl)cc1`: 12%; `Cc1ccc(/C=N/NC(=O)CC2N=C(Cc3ccccc3)NNC2=O)cc1` (stereo not drawn): 19.2%; `CN(C)C(=O)Oc1ccc(-c2cn3cc(C(F)(F)F)ccc3n2)cc1`: 8.25%. Regarding `CN(c1ccccc1)c1nc(N)c([N+](=O)[O-])c(Nc2cccc(F)c2)n1`, the “hERG current change (%, negative = inhibition) at 1uM” value is 15.4%. Next, `COc1ccc(CC2S/C(=N/N=C/c3ccccc3O)NC2=O)cc1` (stereo not drawn): 13.2%; `O=C(O)c1ccccc1CSc1nnnn1-c1ccccc1`: 8.11%; `CCOC(=O)c1c(NC(=O)CC)sc(C(=O)NC2CCCC2)c1C`: 8.31%. Next, `CCc1ccc(CN2CCCC(CNS(=O)(=O)c3ccc(OC)cc3)C2)cc1` (stereo not drawn): -13.4%.

In the case of `CN(C)S(=O)(=O)c1cccc(NC(=O)c2cnccn2)c1`, the “hERG current change (%, negative = inhibition) at 1uM” value is listed as 7.92%. With `Cc1nc(N2CCN(S(=O)(=O)c3cccc4nonc34)CC2)c2c3c(sc2n1)CCCC3` the figure was 1.79%. As for `CN(CC1CCCN(CCc2ccc(Cl)cc2)C1)C(=O)CC(F)(F)F` (stereo not drawn), the “hERG current change (%, negative = inhibition) at 1uM” value was -38%. With `CCN1CSC(=S)N(Cc2ccc(OC)cc2)C1` the figure was 18.9%; with `Cc1ccc(C(=O)NCCOc2cccc(C)c2)cc1`, 12.7%. Next, `Cc1nc2cc(NC(=O)N3CCC(c4ccccc4)C3)ccc2n1C` (stereo not drawn): -23.2%; `Cc1ccc(NC(=O)CN2C(=O)NC(C)(C3CC3)C2=O)c(C)c1` (stereo not drawn): 9.13%. Turning to `CC(=O)c1ccc(NC(=S)NNC(=O)c2ccccc2[N+](=O)[O-])cc1`, the “hERG current change (%, negative = inhibition) at 1uM” value amounted to 13.4%. For the compound `O=C1C2CCCC1C([NH+]1CCCC1)CC2.[Cl-]` (stereo not drawn), the “hERG current change (%, negative = inhibition) at 1uM” value was found to be 6.99%. With `CC(=O)Nc1ccc(S(=O)(=O)N2CCN(c3nc4ccccc4n3CC(C)C)CC2)cc1` the figure was 7.44%; with `CCCN(CCC)S(=O)(=O)c1ccc(C(=O)Nc2ccc(OCC(=O)N3CCOCC3)cc2)cc1`, 3.94%; with `COc1ccccc1-n1cnc2sc(-c3ccccc3)cc2c1=O`, 12.5%. As for `O=C(CN1C(=O)NC2(CCOc3ccccc32)C1=O)c1ccc(F)cc1` (stereo not drawn), the “hERG current change (%, negative = inhibition) at 1uM” value is 3.75%. Next, `COCCSc1ccccc1C(=O)N1CCN(Cc2ccc3c(c2)OCO3)CC1`: 11.2%; `Cc1cc(C)c(C)c(S(=O)(=O)N2CCN(C(=O)c3ccccc3OCc3c(C)noc3C)CC2)c1C`: 4.34%; `Cc1ccc(C(=O)N/C(=C/c2ccc(-c3ccc([N+](=O)[O-])cc3)o2)C(=O)NCCCN(C)C)cc1`: -78%. With `CCC(C)(C)c1ccc(Oc2ccc(NC(=O)COC(=O)C3=COCCO3)cc2)cc1` the figure was 11.3%; with `COc1ccc(C(N)=O)cc1NC(=O)c1cccc(F)c1`, 8.83%; with `Cc1cc(C)c(C)c(S(=O)(=O)N2CCC(C(=O)N3CCCCCCC3)CC2)c1C`, 8.69%.

On to `CCN(C(=O)COC(=O)c1cc(S(=O)(=O)N2CCOCC2)ccc1F)C1CCS(=O)(=O)C1` (stereo not drawn), for which the “hERG current change (%, negative = inhibition) at 1uM” value amounted to 14.4%. Next, `Cc1cc(NC(=O)c2ccccc2Cl)c(C(C)C)cc1O`: 4.82%; `COc1ccc(-n2c(C)nnc2SCC(=O)Nc2ccccc2F)cc1`: 10.9%; `COc1cc(/C=C(\C#N)C(=O)N2CCOCC2)ccc1OCc1ccccc1`: 18.5%. For the compound `O=C(O)CSc1c2c(nc3cc(C(=O)Nc4cccc(C(F)(F)F)c4)ccc13)CCCC2`, the “hERG current change (%, negative = inhibition) at 1uM” value turned out to be 7.39%. Next, `COc1ccc(-n2nnnc2SCC(=O)Nc2cccc(C)n2)cc1OC`: 2.36%.

As for `CCOc1ccc(NC(=O)CN(C)C(=O)CSCc2ccc(C)cc2)cc1OCC`, the “hERG current change (%, negative = inhibition) at 1uM” value was -1.27%. `Cc1nc2ccc(-n3ccc(=O)cc3)cc2s1`: the “hERG current change (%, negative = inhibition) at 1uM” value was 17.5%.

Consider `CCOC(=O)c1[nH]ncc1[C@@H]1C[C@H]2CN(Cc3cccc(Cl)c3)C(=O)[C@]23CCCN13`, for which the “hERG current change (%, negative = inhibition) at 1uM” value stood at 4.37%. With `Cc1ccn2c(NC3CCCC3)c(-c3cccs3)nc2c1.Cl` the figure was 11.1%. With `COc1cc(-c2[nH]nc3c2C(c2ccoc2)C(C#N)=C(N)O3)cc(OC)c1OC` (stereo not drawn) the figure was -4.5%. Next, `Cl.NN=C(N)N`: 6.64%; `O=C(Nc1ccc(Oc2ccc(Cl)cc2)cc1)c1ncn[nH]1`: 2.59%.

For the compound `CC(=O)N(C(C)=O)N1C(=O)C2C3c4ccccc4C(c4ccccc43)C2C1=O` (stereo not drawn), the “hERG current change (%, negative = inhibition) at 1uM” value is 5.65%. On to `COCCCNC(=S)NNC(=O)c1cc(-c2ccncc2)nc2ccccc12`, for which the “hERG current change (%, negative = inhibition) at 1uM” value was 6.61%.

In the case of `C=CCc1cc(Cl)ccc1OCCNCCN1CCOCC1.O=C(O)C(=O)O`, the “hERG current change (%, negative = inhibition) at 1uM” value is given as 5.59%. With `CCN(CC)C(=O)c1cccc2nc3ccccc3nc12` the figure was 12.7%; with `O=C(NC1CCCC1)c1ccc(CSc2nc3ccncc3n2Cc2ccc(F)cc2)cc1`, 3.86%; with `COc1ccc(C)cc1NC(=O)CSc1nnc(COc2ccccc2)n1Cc1ccco1`, 7.89%. Next, `C[C@H](NC(=O)c1ccco1)C(=O)NCc1cccs1`: 9.92%; `CCN(C(=O)c1ccc(Br)cc1)c1ccccc1`: -1.75%. With `CCOc1ccccc1N1CN(C2CCCCC2)CNC1=S` the figure was 11.8%; with `O=C1CCCC2=C1C1(O)C(=O)c3ccccc3C1(O)O2` (stereo not drawn), 5.1%. For `C/C(=N/NS(=O)(=O)c1ccc(C)cc1)c1c(O)c2ccccc2oc1=O`, the “hERG current change (%, negative = inhibition) at 1uM” value is 9.02%. Next, `Cc1ccccc1S(=O)(=O)Cc1ccc(C(=O)N(C)C2CCCCC2)o1`: 12.1%. Next, `O=C(CN1CCN(Cc2ccccc2Cl)CC1)N=Nc1c(O)[nH]c2ccccc12`: -5.17%; `CCn1c(=O)c(C(=O)NCc2ccccc2OC)c(O)c2ccccc21`: 13.4%. Next, `Cc1cc2c(c(SCC(=O)Nc3ccc(C)c(C)c3)n1)C(=O)OC2`: 12.1%. In the case of `COc1ccc(C(=O)Nc2cc(=O)n(C)c(=O)n2C)cc1OC`, the “hERG current change (%, negative = inhibition) at 1uM” value is listed as 20%. Next, `COc1ccc(NC(=O)Nc2ccccc2C(N)=O)cc1`: 14.6%; `C/C=C/C(=O)OCC(=O)Nc1ccc(OC)c(Cl)c1`: 11.2%; `Cc1cccc(N(Cc2cc3ccccc3[nH]c2=O)C(=O)c2cccs2)c1`: 16.4%.

Consider `O=C(COC(=O)C12CC3CC(CC(C3)C1)C2)Nc1nc2c(F)c(F)c(F)cc2s1`, for which the “hERG current change (%, negative = inhibition) at 1uM” value came out at 18.5%. Next, `O=C1c2cccc3c(N4CCCCC4)ccc(c23)C(=O)N1c1ccccc1O`: 8.39%; `COc1cc(NC(=O)NC(C)(C(F)(F)F)C(F)(F)F)cc(OC)c1OC`: 11.7%. Regarding `O=C(O)CCCCNS(=O)(=O)/C=C/c1ccccc1`, the “hERG current change (%, negative = inhibition) at 1uM” value came to 13%. Next, `O=C(O)c1ccc(-[n+]2c(-c3ccccc3)cc(-c3ccccc3)cc2-c2ccccc2)cc1.[O-][Cl+3]([O-])([O-])[O-]`: 15.1%; `COc1ccccc1NS(=O)(=O)c1cccc2nsnc12`: 11.9%; `CN(C(=O)COC(=O)c1cc2ccccc2cc1O)C1CCCCC1`: 13.8%. `O=C(O)CCCC(=O)N1N=C(c2c(-c3ccccc3)c3cc(Cl)ccc3[nH]c2=O)CC1c1cccs1` (stereo not drawn): the “hERG current change (%, negative = inhibition) at 1uM” value is listed as 8.21%. Next, `C#CCSc1ncc(S(=O)(=O)c2ccccc2)c(=O)[nH]1`: 6.68%; `O=C(c1ccc(F)cc1F)C1CCN(c2ccc([N+](=O)[O-])cn2)CC1`: 5.79%. Next, `Cc1ccc(-c2nnc(N3CCN(C(=O)COc4cccc(C)c4)CC3)c3ccccc23)cc1`: 1.66%; `CCCCCOc1ccc(OC(=O)c2ccncc2)cc1`: 13.6%; `CC(=O)NCC(=O)N(Cc1ccco1)C1(C(=O)NC2CCCC2)CCCCC1`: 12.4%. Next, `CCc1ccccc1-n1c(SCC(=O)N2CCCC2)nc2[nH]ncc2c1=O`: -0.685%; `CCC(c1nnnn1Cc1ccc(OC)cc1)N(CCCO)Cc1cc2cc3c(cc2[nH]c1=O)OCO3` (stereo not drawn): 6.91%.
